Laboratory results taken from paper PMC4323006.
No constants are given. Whether binding was seen depends on the method and setting. In cells and extracts the contact can be indirect. Some entries that bind do so weakly or less than the wild type. For part of these data: Where a sequence is shown, tags or fusion partners need not be part of it.

Protein sequences, listed by entry. Tags and fused reporters are not part of them. Lines headed by an entry give the natural chain unless they say otherwise; changes in a name come on top. Residues count along the entry.
UniProt Q16665: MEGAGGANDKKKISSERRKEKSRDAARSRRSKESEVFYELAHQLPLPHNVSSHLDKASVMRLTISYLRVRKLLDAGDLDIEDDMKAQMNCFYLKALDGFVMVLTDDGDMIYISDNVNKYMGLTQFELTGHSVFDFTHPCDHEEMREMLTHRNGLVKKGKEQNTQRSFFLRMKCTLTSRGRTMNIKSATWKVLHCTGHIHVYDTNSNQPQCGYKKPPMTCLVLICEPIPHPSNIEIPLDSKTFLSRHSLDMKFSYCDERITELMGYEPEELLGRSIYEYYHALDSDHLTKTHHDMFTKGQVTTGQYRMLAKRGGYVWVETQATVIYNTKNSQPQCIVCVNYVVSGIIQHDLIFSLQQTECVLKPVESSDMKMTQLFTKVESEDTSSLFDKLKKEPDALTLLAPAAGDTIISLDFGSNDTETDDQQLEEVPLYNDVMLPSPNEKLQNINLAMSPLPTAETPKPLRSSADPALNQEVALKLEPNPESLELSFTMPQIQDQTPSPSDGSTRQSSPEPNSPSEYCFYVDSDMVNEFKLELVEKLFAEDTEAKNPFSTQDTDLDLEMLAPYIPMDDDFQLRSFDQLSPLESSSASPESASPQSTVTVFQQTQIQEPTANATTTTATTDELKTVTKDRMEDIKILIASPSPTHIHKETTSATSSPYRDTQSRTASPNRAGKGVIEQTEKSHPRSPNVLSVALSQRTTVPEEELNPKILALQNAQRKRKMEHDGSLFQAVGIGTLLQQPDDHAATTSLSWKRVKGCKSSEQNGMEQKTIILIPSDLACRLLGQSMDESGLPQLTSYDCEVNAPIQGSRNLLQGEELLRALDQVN
GST-HIF-1α-N-terminal domain (1-401 residues): residues 1-401 of Q16665
HIF-1α-ODD (oxygen dependent degradation domain, 401-603 residues): residues 401-603 of Q16665
UniProt Q9GZT9: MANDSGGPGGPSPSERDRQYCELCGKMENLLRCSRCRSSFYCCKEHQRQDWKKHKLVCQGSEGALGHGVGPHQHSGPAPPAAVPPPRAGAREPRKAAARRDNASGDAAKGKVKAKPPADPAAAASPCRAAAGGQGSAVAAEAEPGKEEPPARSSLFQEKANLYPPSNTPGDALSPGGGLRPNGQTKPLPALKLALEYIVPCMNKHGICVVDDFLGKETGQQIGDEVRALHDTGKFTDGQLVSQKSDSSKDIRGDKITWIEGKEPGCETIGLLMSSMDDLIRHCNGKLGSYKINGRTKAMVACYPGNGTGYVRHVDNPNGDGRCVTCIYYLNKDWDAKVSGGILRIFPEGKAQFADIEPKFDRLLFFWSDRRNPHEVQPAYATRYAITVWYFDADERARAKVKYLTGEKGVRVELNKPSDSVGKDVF
UniProt P40337: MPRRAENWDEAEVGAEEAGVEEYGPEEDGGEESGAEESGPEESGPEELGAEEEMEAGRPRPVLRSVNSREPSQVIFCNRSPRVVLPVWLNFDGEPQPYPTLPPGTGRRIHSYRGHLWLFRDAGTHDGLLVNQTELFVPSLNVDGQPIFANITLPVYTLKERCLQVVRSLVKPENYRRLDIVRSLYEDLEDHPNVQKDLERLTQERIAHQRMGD

Key:
[1] = target: HIF-1α (source not stated for the experiment) (UniProt Q16665); test: co-IP; HEK293 cells cultured under hypoxic conditions (1% O2) before immunoprecipitation
[2] = target: PHD2 (HIF prolyl hydroxylase 2), transfected (UniProt Q9GZT9); test: as above
[3] = target: HA-HIF-1α-PPAA (P402A/P564A) (UniProt Q16665); test: co-IP; HEK293 lysates (passive-lysis buffer, gentle sonication), antibody with protein A sepharose beads, immunoblot; normoxia, many panels with MG132; some panels with co-expressed PLD1, PLD1-PH, PHD2 or VHL or with DFX; for PLD1-PH under normoxia and hypoxia
[4] = target: HIF-1α-ODD (oxygen dependent degradation domain, 401-603 residues) (UniProt Q16665); test: as above
[5] = target: HIF-1α (source not stated for the experiment) (UniProt Q16665); test: as above
[6] = target: GST-HIF-1α-N-terminal domain (1-401 residues) (UniProt Q16665); test: as above
[7] = target: Endogenous HIF-1α (human (endogenous in HEK293)) (UniProt Q16665); test: as above
[8] = target: PHD2 (HIF prolyl hydroxylase 2), transfected (UniProt Q9GZT9); test: as above
[9] = target: Exogenous HIF-1α (HA-HIF-1α, wild type) (UniProt Q16665); test: as above
[10] = target: Endogenous PHD2 (human (endogenous in HEK293)) (UniProt Q9GZT9); test: as above
[11] = target: von Hippel-Lindau protein (HA-VHL), wild type (UniProt P40337); test: as above
[12] = target: In vitro-translated HA-PHD2 (UniProt Q9GZT9); test: co-IP; in vitro binding assay: IP of in vitro-translated HA-PHD2 and in vitro-translated PLD1

B1: Phospholipase D1 (PLD1), wild type (enzyme, UniProt Q13393 1-1074)
chain: MSLKNEPRVNTSALQKIAADMSNIIENLDTRELHFEGEEVDYDVSPSDPKIQEVYIPFSAIYNTQGFKEPNIQTYLSGCPIKAQVLEVERFTSTTRVPSINLYTIELTHGEFKWQVKRKFKHFQEFHRELLKYKAFIRIPIPTRRHTFRRQNVREEPREMPSLPRSSENMIREEQFLGRRKQLEDYLTKILKMPMYRNYHATTEFLDISQLSFIHDLGPKGIEGMIMKRSGGHRIPGLNCCGQGRACYRWSKRWLIVKDSFLLYMKPDSGAIAFVLLVDKEFKIKVGKKETETKYGIRIDNLSRTLILKCNSYRHARWWGGAIEEFIQKHGTNFLKDHRFGSYAAIQENALAKWYVNAKGYFEDVANAMEEANEEIFITDWWLSPEIFLKRPVVEGNRWRLDCILKRKAQQGVRIFIMLYKEVELALGINSEYTKRTLMRLHPNIKVMRHPDHVSSTVYLWAHHEKLVIIDQSVAFVGGIDLAYGRWDDNEHRLTDVGSVKRVTSGPSLGSLPPAAMESMESLRLKDKNEPVQNLPIQKSIDDVDSKLKGIGKPRKFSKFSLYKQLHRHHLHDADSISSIDSTSSYFNHYRSHHNLIHGLKPHFKLFHPSSESEQGLTRPHADTGSIRSLQTGVGELHGETRFWHGKDYCNFVFKDWVQLDKPFADFIDRYSTPRMPWHDIASAVHGKAARDVARHFIQRWNFTKIMKSKYRSLSYPFLLPKSQTTAHELRYQVPGSVHANVQLLRSAADWSAGIKYHEESIHAAYVHVIENSRHYIYIENQFFISCADDKVVFNKIGDAIAQRILKAHRENQKYRVYVVIPLLPGFEGDISTGGGNALQAIMHFNYRTMCRGENSILGQLKAELGNQWINYISFCGLRTHAELEGNLVTELIYVHSKLLIADDNTVIIGSANINDRSMLGKRDSEMAVIVQDTETVPSVMDGKEYQAGRFARGLRLQCFRVVLGYLDDPSEDIQDPVSDKFFKEVWVSTAARNATIYDKVFRCLPNDEVHNLIQLRDFINKPVLAKEDPIRAEEELKKIRGFLVQFPFYFLSEESLLPSVGTKEAIVPMEVWT
binding [1]: no binding (condition: under hypoxia (1% O2))
binding [2]: no binding (condition: under hypoxia (1% O2))
binding [3]: binds
binding [4]: no binding
binding [5]: binds
binding [6]: binds
binding [7]: binds
binding [8]: binds
binding [9]: binds

B2: Endogenous PLD1 (enzyme, UniProt Q13393 1-1074)
chain: B1 chain
binding [10]: binds

B3: GFP-PLD1-PH (domain or fragment, UniProt Q13393 219-328)
chain: PKGIEGMIMKRSGGHRIPGLNCCGQGRACYRWSKRWLIVKDSFLLYMKPDSGAIAFVLLVDKEFKIKVGKKETETKYGIRIDNLSRTLILKCNSYRHARWWGGAIEEFIQ
binding [5]: binds
binding [11]: binds
binding [8]: binds

B4: In vitro-translated PLD1 (enzyme, UniProt Q13393 1-1074)
chain: B1 chain
binding [12]: binds

B5: GFP-PH domain of dynamin 1 (DNM1) (domain or fragment, UniProt Q05193 519-625)
chain: LVIRKGWLTINNIGIMKGGSKEYWFVLTAENLSWYKDDEEKEKKYMLSVDNLKLRDVEKGFMSSKHIFALFNTEQRNVYKDYRQLELACETQEEVDSWKASFLRAGV
binding [5]: no binding

B6: GFP-PH domain of dynamin 2 (DNM2) (domain or fragment, UniProt P50570 519-625)
chain: LVIRRGWLTINNISLMKGGSKEYWFVLTAESLSWYKDEEEKEKKYMLPLDNLKIRDVEKGFMSNKHVFAIFNTEQRNVYKDLRQIELACDSQEDVDSWKASFLRAGV
binding [5]: no binding

B7: GFP-PH domain of phospholipase C-δ1 (PLCδ1) (domain or fragment, UniProt P51178 21-130)
chain: ALLKGSQLLKVKSSSWRRERFYKLQEDCKTIWQESRKVMRTPESQLFSIEDIQEVRMGHRTEGLEKFARDVPEDRCFSIVFKDQRNTLDLIAPSPADAQHWVLGLHKIIH
binding [5]: no binding

B8: GFP-PH domain of phospholipase C-δ4 (PLCδ4) (domain or fragment, UniProt Q9BRC7 16-124)
chain: LLMQEGMPMRKVRSKSWKKLRYFRLQNDGMTVWHARQARGSAKPSFSISDVETIRNGHDSELLRSLAEELPLEQGFTIVFHGRRSNLDLMANSVEEAQIWMRGLQLLVD
binding [5]: no binding
